# Reference: PubChem BioAssay AID651582 (Sanford-Burnham Center for Chemical Genomics, 2012)
# The list shows a part of the results. The main result of the screen is listed elsewhere. These columns were measured beside it and carry no call. Compounds called inactive in the main read-out are mostly missing here.
# Experiment: TAG lipid buildup reduction in H9c2 cells – cell-based, uHTS, fluorescence, primary screen (AID 651582)
# Conditions: Nile Red lipid (TAG) fluorescence, measured here:, at 12.5 µM; cells loaded with 200 µM oleic acid unless noted
row,Structure (SMILES),"DAPI nuclei signal change (viability), lower = more cytotoxic"
1,CCCCn1c(N)c(C(=O)NCc2cccs2)c2nc3ccccc3nc21,11% [setting not given]
2,CCOC(=O)C(NC(=O)CC)(Nc1ccc(C(O)(C(=O)OCC)C(F)(F)F)cc1C)C(F)(F)F (stereo not given),0.614% [setting not given]
3,COC(=O)C1=C(C(=O)OC)C2OC1c1cc3ccccc3cc12,-41.1%
4,CC1=CC(C)CC(C)OC(=O)CC(c2ccc(O)cc2)NC(=O)C(Cc2c(Br)[nH]c3ccccc23)N(C)C(=O)C(C)NC(=O)C(C)C1 (stereo not given),-49.8%
5,COC(COC(N)=O)C1=C(N2CC2)C(=O)C(C)=C(N2CC2)C1=O (stereo not given),-48.2%
6,COC(=O)C1=C(c2ccc(OCc3ccccc3)cc2)C[C@@H]2CC[C@H]1N2C(=O)NCc1ccc(C(C)(C)C)cc1,-12.6%
7,COc1ccc(C[C@@H]2c3cc(O)c(OC)cc3CCN2C)cc1O,-39.9% [setting not given]
8,CN1CSC(=S)N(C)C1,-48.4% [setting not given]
9,Cc1cccc(N=C2c3cc([N+](=O)[O-])ccc3-c3c2cc([N+](=O)[O-])cc3[N+](=O)[O-])c1,-34.5%
10,COC(=O)C1=C(c2ccccc2OCc2ccccc2)C[C@@H]2CC[C@H]1N2C(=O)NCc1ccc(OC)c(OC)c1,-12.6%
11,O=P(O)(O)CN1CCNCCN(CP(=O)(O)O)CCNCC1,-43.6%
12,NC(N)=N/N=C/c1cn(-c2ccccc2)nc1-c1cccs1,-42.5% [setting not given]
13,N#Cc1c(Br)n(C2OC(CO)C(O)C2O)c2ncnc(N)c12 (stereo not given),-5.69%
14,CCCCCCC(C)(C)c1ccc([C@@H]2C[C@H](O)CC[C@H]2CCCO)c(O)c1,-33% [setting not given]
15,COC1CCC(OC2CC(C3(C)CCC4(CC(O)C(C)C(C(C)/C=C(\C)C(=O)C(C)CC(C)C(=O)O)O4)O3)OC3(OC(C4OC(O)(CO)C(C)CC4C)CC3C)C2C)OC1C (stereo not given),-44.6%
16,N#Cc1cn(C2OC(CO)C(O)C2O)c2ncnc(N)c12 (stereo not given),-48.6%
17,COc1cc2nc(CN3CC=C(c4ccccc4)CC3)[nH]c(=O)c2cc1OC,-48.4%
18,COc1cc2c(cc1OC)-c1c3c(cc4c1[C@@H](C2)N(C)CC4)OCO3,-16.2% [setting not given]
19,CNc1cc(Cl)c2nonc2c1[N+](=O)[O-],-41.1% [setting not given]
20,COc1cc2c3c(c1OC)Oc1ccc(cc1)C[C@H]1c4c(cc(OC)c(OC)c4Oc4ccc(cc4)C[C@@H]3N(C)CC2)CCN1C,-40%
